According to PubChem BioAssay AID504332 (National Center for Advancing Translational Sciences (NCATS), 2011):
About 31,000 (8.9%) of roughly 350,000 compounds were called active. This list was built around the results that the source calls inconclusive (neither active nor inactive); the mix of calls is not that of the screen. The call rests on the fitted dose curve; in most records, active means well fitted inhibition curve with a large enough effect; inconclusive means small, poorly fitted or top-dose-only effect; inactive means no such curve, though single readings can be large or run the other way. Potencies beside an inconclusive call are fits to weak or partial responses and may not hold up.
Further: nearly all actives have a fitted effect of over 75% in size.
On the % scale 0 is the no-effect control and ±100 the full control effect; potency means the concentration at half of the fitted maximal effect; tags describe the fitted curve by direction and shape.

Each compound was assayed against Histone-lysine N-methyltransferase EHMT2 (Homo sapiens) (UniProt Q96KQ7) (assay: qHTS Assay for Inhibitors of Histone Lysine Methyltransferase G9a). Conditions: G9a H3K9 monomethylation, AlphaScreen, 2 h; activity, negative = inhibition: at 59 µM (top of the series) unless noted.
Sequence of UniProt Q96KQ7 (Q96KQ7 whole entry, looked up): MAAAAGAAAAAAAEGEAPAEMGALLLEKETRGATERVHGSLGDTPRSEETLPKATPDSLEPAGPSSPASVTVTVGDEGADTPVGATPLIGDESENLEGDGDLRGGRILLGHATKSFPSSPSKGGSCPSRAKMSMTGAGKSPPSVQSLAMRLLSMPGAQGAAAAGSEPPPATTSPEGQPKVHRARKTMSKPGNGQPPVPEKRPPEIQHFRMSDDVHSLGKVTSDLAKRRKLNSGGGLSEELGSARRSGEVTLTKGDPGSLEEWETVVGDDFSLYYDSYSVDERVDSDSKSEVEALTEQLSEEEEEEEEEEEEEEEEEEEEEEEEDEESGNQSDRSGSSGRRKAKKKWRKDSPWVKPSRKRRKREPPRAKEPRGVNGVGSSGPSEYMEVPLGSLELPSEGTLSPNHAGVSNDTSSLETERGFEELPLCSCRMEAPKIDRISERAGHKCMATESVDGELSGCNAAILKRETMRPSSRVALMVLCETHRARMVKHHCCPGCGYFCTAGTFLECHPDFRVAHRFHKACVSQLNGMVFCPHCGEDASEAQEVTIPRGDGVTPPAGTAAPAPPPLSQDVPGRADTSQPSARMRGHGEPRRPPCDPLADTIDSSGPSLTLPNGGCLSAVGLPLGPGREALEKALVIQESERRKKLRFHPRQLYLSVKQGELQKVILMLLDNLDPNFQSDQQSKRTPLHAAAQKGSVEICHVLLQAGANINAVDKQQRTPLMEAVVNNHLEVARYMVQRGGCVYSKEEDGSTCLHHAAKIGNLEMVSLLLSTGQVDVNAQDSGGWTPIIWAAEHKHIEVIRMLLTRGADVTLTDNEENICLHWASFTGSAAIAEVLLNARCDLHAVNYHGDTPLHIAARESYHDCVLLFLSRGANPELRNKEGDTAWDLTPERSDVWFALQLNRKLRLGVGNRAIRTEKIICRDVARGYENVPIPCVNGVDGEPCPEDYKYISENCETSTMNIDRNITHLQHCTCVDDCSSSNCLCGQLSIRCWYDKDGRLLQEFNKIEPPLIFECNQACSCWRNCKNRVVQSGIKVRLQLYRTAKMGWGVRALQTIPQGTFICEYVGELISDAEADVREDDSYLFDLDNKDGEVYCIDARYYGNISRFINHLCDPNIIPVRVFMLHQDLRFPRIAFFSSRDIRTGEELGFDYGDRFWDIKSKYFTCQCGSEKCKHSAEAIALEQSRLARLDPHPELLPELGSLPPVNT
Summary of the method: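 Chemiluminescent proximity detection of H3K9 monomethylation, read after 10 min bead incubation in the dark. Reaction: 20 nM G9a, 500 nM biotin-H3K9 peptide, 20 uM SAM cofactor, 2 h, room temperature, following 15 min enzyme-compound preincubation.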
COc1ccc2[nH]cc(CCNC(=O)c3ccccc3Cl)c2c1 was tested, and the Potency was “inactive”.
In the case of COc1ccc(C(C)n2c(C)c3c(C)nnc(C)c3c2C)cc1 (centres undefined), the Potency is reported as inconclusive: 39.8 µM [inhibitor, partial curve, poor fit].
In the case of CCC(C)OC(=O)/C(C#N)=C\c1ccc(-c2cccc(C(F)(F)F)c2)o1 (centres undefined), the Potency is reported as “inactive”.
With CCOC(=O)CSc1nnc(CNC(=O)c2ccc(S(=O)(=O)N3CCCCC3)cc2)n1C the Potency was inconclusive: 89.1 µM [inhibitor, partial curve, poor fit].
In the case of O=c1[nH]c2ccc(Br)cc2c(-c2ccccc2)c1CN1CCOCC1, the Potency is reported as active: 50.1 µM.
With CCc1ccc(NCc2cc3cc(OC)c(OC)cc3n(CC(=O)Nc3cc(C)ccc3C)c2=O)cc1 the Potency was “inactive”.
With CCOC(=O)CN1C(=O)S/C(=C/c2cc(C)n(-c3ccccn3)c2C)C1=O the Potency was inconclusive: 22.4 µM [inhibitor, partial curve, poor fit].
In the case of Cc1c(Cl)cccc1NC(=S)NNS(=O)(=O)c1ccc([N+](=O)[O-])cc1, the Potency is reported as inconclusive: 56.2 µM [inhibitor, single point].
CCn1c(C(=O)NCc2cccnc2)cc2sc(Cl)cc21 was tested, and the activity, negative = inhibition was inactive: -48.5% [at 12.7 µM].
For S=c1[nH]nc(-c2cc(-c3ccccc3)n[nH]2)n1/N=C/C=C/c1ccco1, the Potency was active: 1.78 µM.
COc1ccc(NS(=O)(=O)c2cccc(C(=O)N3CCN(Cc4ccc5c(c4)OCO5)CC3)c2)cc1 was tested, and the Potency was inconclusive: 79.4 µM [inhibitor, single point].
For O=C1CN2NC(=S)N(c3ccccc3)C2=CN1c1ccc(Cl)cc1, the Potency was inconclusive: 70.8 µM [inhibitor, partial curve].
With Nc1c(C(=O)Nc2ccccc2F)sc2nc(-c3ccco3)ccc12 the Potency was inconclusive: 7.08 µM [inhibitor, single point].
In the case of CN1CCCN(Cc2nc(-c3ccc(Cl)cc3)no2)CC1, the Potency is reported as inconclusive: 56.2 µM [inhibitor, partial curve, poor fit].
For Oc1ccc(C23CC4CC(CC(C4)C2)C3)cc1O, the Potency was active: 0.708 µM.
CC(C(=O)Nc1ccccc1-c1ccccc1)N1CCN(C(=O)c2ccccc2)CC1 (centres undefined) was tested, and the Potency was “inactive”.
With Cn1c(=O)c(=O)n(C)c2cc(S(=O)(=O)CCC(=O)Nc3ccc(C(F)(F)F)cc3)ccc21 the activity, negative = inhibition was inactive: -8.5% [at 0.0925 µM].
For O=C(Nc1cc(C(=O)N2CCCC2)ccc1N1CCCC1)c1ccccc1, the Potency was inconclusive: 3.98 µM [inhibitor, partial curve, poor fit].
With COc1cccc(CN2CCNC(=O)C2CC(=O)NCc2cc(C(C)C)no2)c1 (centres undefined) the Potency was active: 50.1 µM.
In the case of O=C(COC(=O)c1ccc[nH]c1=O)NC1CCCCCCC1, the Potency is reported as inconclusive: 89.1 µM [inhibitor, partial curve, poor fit].
With CCOc1cc2c(cc1OCC)C(c1ccc(C(=O)O)cc1)NCC2 (centres undefined) the Potency was inconclusive: 89.1 µM [inhibitor, single point].
In the case of Cc1ccc(NC(=O)Cc2cn(C)c3ccccc23)cc1F, the Potency is reported as inconclusive: 1.78 µM [inhibitor, full curve, poor fit].
Cc1cccc(NC2=CC(c3cccc(Br)c3)N(c3cccc(C)c3)C2=O)c1 (centres undefined) was tested, and the Potency was “inactive”.
Cc1ccc(/C=C2\SC(=O)N(CCNC(=O)C3CSC4(C)CCC(=O)N34)C2=O)cc1 (centres undefined) was tested, and the Potency was active: 35.5 µM.
For CN1CCN(c2ccccc2/C=C2/C(=O)Nc3ccccc32)CC1, the Potency was active: 50.1 µM.
For COC(=O)CSc1nc2[nH]ncc2c(=O)[nH]1, the Potency was “inactive”.
In the case of CCOC(=O)c1[nH]c(C)c(/C(O)=C2\C(=O)C(=O)N(CCN(C)C)C2c2ccncc2)c1C (centres undefined), the activity, negative = inhibition is reported as inactive: -48.7% [at 12.7 µM].
c1ccc(C(c2c[nH]c3ccccc23)c2c[nH]c3ccccc23)nc1 was tested, and the Potency was inconclusive: 25.1 µM [inhibitor, single point].
For COCCN(C(=O)CCc1ccc(OC)cc1)c1nnc(-c2ccncc2)s1, the Potency was inconclusive: 56.2 µM [inhibitor, partial curve, poor fit].
Cc1ccsc1C1Nc2ccccc2C(=O)N1O (centres undefined) was tested, and the Potency was inconclusive: 28.2 µM [inhibitor, single point].
CCC(=O)Nc1ccc(NC(=S)NC(=O)/C=C/c2ccccc2)cc1 was tested, and the Potency was inconclusive: 8.91 µM [inhibitor, full curve, poor fit].
For Cc1ncoc1C(=O)Nc1cccc(Cl)c1, the Potency was inconclusive: 56.2 µM [inhibitor, partial curve, poor fit].
With CCN(CC)CCOC(=O)CCc1cccc2ccccc12 the Potency was active: 7.94 µM.
Cc1cc(O)c(C(c2ccccc2)N2CCN(C)CC2)c(=O)n1Cc1ccco1 (centres undefined) was tested, and the Potency was inconclusive: 39.8 µM [inhibitor, single point].
In the case of CCSc1nnc(-c2cnn(-c3ccccc3)c2-n2cccc2)n1C, the Potency is reported as inconclusive: 3.98 µM [inhibitor, partial curve, poor fit].
CCOC(=O)CSc1nc(C)c(C(=O)OCC)s1 was tested, and the activity, negative = inhibition was inactive: -0.996% [at 12.7 µM].
With CC1(C)Cc2c(sc3nc4n(c(=O)c23)CCC4)CO1 the activity, negative = inhibition was inconclusive: -81.4% [inhibitor].
In the case of COC(=O)c1c(C)n(-c2ccc(C)cc2)c2ccc(O)cc12, the Potency is reported as inconclusive: 89.1 µM [inhibitor, single point].
With Cc1cccc(C)c1Nc1nnc(SCc2cc([N+](=O)[O-])cc3c2OCOC3)s1 the Potency was active: 50.1 µM.
In the case of CCOc1cc2c(Cl)ncnc2c(OCC)c1OCC, the Potency is reported as inconclusive: 50.1 µM [inhibitor, partial curve, poor fit].
With CN(C)c1ccc(CNS(=O)(=O)c2ccc3[nH]c4c(c3c2)CCCCC4)cc1 the Potency was inconclusive: 4.47 µM [inhibitor, partial curve, poor fit].
COc1ccc(Br)cc1CNC(=O)c1nn(-c2ccc(C)cc2)c(=O)c2c1c1ccccc1n2C was tested, and the Potency was “inactive”.
With CCOC(=O)c1oc2c(C)c(O)ccc2c(=O)c1-c1nncn1-c1ccccc1 the Potency was “inactive”.
For COc1ccc(Nc2nnc(SCC(=O)c3cc(C)n(CC4CCCO4)c3C)s2)cc1 (centres undefined), the Potency was inconclusive: 3.16 µM [inhibitor, single point].
